Results are given in words; binding and its absence hold for the method and conditions named. Binding seen in cells or lysates may run through a third protein. Some results given as binding are weak or reduced against the parent protein; the word gives no strength. Values belong to the substance of their own block, whether it stands above or below them.
Columns and labels:
DYNC2H1(N)-mCherry = DYNC2H1(N)-mCherry (UniProt Q8NCM8); assay: co-IP; lysates of HEK293T cells coexpressing DYNC2H1(N)-mChe and an EGFP-fused DYNC2LI1 construct; precipitated with GST-tagged anti-mChe Nb (LaM-2) on glutathione-Sepharose 4B beads, 4 °C, 1 h; HMDEKN lysis buffer (10 mM HEPES pH 7.4, 5 mM MgSO4, 1 mM DTT, 0.5 mM EDTA, 25 mM KCl, 0.05% NP-40); immunoblot with anti-mChe and anti-GFP (Fig. 1c)
DYNC2H1(N)-EGFP = DYNC2H1(N)-EGFP (UniProt Q8NCM8); assay: co-IP; lysates of HEK293T cells coexpressing DYNC2H1(N)-EGFP, an EGFP-fused DYNC2LI1 construct and mChe-WDR60(627–1066) or mChe-WDR34(106–536); precipitated with GST–anti-GFP Nb on glutathione-Sepharose 4B beads (both EGFP proteins are captured), 4 °C, 1 h; HMDEKN lysis buffer; immunoblot with anti-mChe and anti-GFP (Fig. 1d, Fig. S1a)
[1] = target: EGFP-DYNC2LI1(1–207) (human) (UniProt Q8TCX1); assay: as above
[2] = target: EGFP-DYNC2LI1(1–240) (human) (UniProt Q8TCX1); assay: as above
[3] = target: EGFP-DYNC2LI1(1–297) (human) (UniProt Q8TCX1); assay: as above
[4] = target: EGFP-DYNC2LI1(1–317) (human) (UniProt Q8TCX1); assay: as above
[5] = target: EGFP-DYNC2LI1(241–352) (human) (UniProt Q8TCX1); assay: as above
[6] = target: EGFP-DYNC2LI1(L117V) (human) (UniProt Q8TCX1); assay: as above
[7] = target: EGFP-DYNC2LI1(P120S) (human) (UniProt Q8TCX1); assay: as above
[8] = target: EGFP-DYNC2LI1(T221I) (human) (UniProt Q8TCX1); assay: as above
[9] = target: EGFP-DYNC2LI1(WT) (human) (UniProt Q8TCX1); assay: as above
[10] = target: EGFP-DYNC2LI1(Δ302–332) (human) (UniProt Q8TCX1); assay: as above

Sequences of proteins named here, by UniProt entry; tags and fusion partners are left off. A change or cut given only in a name is not applied to a line headed by its entry. A line that says so, or that is headed by a name, gives the form on record, which may keep a tag or linker. Residues count along the entry.
UniProt Q8NCM8, residues 1-1090: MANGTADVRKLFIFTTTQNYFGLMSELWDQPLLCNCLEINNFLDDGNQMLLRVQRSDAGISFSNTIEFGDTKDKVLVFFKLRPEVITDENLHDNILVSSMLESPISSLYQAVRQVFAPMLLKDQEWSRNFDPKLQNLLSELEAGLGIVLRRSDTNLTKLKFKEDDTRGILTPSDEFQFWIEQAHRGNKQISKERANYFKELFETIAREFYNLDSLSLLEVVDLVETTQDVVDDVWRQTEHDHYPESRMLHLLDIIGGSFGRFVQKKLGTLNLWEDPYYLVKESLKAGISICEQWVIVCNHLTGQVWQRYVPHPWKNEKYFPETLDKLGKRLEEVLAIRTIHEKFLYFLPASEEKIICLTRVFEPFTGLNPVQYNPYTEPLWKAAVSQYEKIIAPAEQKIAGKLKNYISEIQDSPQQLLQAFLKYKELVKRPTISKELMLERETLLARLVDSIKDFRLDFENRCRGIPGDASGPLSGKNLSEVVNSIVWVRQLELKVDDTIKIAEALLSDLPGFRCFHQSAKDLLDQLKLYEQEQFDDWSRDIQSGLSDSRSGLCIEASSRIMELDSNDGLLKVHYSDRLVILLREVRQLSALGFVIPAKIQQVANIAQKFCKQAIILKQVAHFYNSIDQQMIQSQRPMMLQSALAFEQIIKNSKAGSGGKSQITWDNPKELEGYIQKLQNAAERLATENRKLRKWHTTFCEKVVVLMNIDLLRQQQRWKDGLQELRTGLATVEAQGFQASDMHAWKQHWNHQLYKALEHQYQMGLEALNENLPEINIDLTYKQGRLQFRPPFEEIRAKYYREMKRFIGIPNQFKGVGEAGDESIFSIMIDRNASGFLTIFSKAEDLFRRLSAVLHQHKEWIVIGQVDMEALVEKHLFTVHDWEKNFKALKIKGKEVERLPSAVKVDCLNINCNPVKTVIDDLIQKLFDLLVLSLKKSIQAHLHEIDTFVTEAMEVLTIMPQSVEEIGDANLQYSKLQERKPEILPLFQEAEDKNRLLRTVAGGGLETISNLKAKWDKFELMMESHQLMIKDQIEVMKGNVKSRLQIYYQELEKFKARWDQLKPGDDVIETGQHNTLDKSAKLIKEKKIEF
EGFP-DYNC2LI1(241–352) (Q8TCX1, residues 240-351): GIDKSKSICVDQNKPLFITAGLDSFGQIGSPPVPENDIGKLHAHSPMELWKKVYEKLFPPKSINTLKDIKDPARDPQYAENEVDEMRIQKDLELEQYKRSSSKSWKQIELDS
EGFP-DYNC2LI1(L117V) (Q8TCX1-2, form named): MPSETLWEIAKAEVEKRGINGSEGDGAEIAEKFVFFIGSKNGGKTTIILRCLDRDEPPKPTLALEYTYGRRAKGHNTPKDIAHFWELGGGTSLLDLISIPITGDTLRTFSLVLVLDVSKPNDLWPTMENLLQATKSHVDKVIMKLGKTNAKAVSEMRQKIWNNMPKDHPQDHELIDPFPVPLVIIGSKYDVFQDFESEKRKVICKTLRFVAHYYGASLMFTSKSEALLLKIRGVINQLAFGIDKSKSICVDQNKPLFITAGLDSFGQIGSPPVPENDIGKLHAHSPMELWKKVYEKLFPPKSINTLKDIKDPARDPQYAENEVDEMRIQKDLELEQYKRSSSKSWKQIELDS
EGFP-DYNC2LI1(P120S) (Q8TCX1-2, form named): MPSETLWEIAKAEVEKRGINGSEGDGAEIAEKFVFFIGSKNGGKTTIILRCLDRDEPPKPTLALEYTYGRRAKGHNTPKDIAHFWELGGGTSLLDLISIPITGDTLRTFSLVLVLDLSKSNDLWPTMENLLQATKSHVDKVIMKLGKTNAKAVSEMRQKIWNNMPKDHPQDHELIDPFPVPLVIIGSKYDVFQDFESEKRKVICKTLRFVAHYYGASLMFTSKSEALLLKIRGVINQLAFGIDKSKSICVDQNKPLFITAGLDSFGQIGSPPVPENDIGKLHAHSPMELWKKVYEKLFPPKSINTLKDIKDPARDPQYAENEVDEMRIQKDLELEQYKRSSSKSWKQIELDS
EGFP-DYNC2LI1(T221I) (Q8TCX1-2, form named): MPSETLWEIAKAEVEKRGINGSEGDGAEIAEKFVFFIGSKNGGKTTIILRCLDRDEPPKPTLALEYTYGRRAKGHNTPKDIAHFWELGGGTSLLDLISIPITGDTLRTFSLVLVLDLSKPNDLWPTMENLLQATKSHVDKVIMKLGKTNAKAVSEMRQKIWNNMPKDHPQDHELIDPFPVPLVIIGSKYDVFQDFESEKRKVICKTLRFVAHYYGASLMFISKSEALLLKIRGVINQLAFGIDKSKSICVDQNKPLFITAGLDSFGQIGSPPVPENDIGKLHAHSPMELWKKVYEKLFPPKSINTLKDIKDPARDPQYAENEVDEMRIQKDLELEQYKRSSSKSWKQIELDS
EGFP-DYNC2LI1(WT) (Q8TCX1-2, form named): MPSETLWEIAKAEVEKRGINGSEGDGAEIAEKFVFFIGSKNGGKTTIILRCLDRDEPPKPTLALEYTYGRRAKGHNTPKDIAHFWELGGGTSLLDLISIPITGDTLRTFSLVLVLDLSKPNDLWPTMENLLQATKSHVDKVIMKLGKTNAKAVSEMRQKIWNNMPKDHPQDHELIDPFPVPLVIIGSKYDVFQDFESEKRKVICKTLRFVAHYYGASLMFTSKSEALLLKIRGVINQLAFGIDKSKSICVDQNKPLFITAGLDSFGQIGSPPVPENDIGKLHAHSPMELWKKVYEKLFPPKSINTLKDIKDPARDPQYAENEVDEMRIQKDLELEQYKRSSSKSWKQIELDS
EGFP-DYNC2LI1(1–207) (Q8TCX1-2, form named): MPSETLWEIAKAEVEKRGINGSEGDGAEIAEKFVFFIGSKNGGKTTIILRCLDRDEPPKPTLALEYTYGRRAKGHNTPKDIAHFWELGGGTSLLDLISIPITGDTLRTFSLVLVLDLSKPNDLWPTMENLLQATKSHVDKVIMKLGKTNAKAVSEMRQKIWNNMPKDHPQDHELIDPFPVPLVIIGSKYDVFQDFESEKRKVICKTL
EGFP-DYNC2LI1(1–240) (Q8TCX1-2, form named): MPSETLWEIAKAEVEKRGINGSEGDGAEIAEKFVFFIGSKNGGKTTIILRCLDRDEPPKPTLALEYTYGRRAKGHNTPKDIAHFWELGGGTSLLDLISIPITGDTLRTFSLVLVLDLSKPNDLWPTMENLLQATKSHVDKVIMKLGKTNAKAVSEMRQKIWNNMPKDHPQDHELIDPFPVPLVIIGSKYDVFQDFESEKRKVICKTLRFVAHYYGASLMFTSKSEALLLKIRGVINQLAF
EGFP-DYNC2LI1(1–297) (Q8TCX1-2, form named): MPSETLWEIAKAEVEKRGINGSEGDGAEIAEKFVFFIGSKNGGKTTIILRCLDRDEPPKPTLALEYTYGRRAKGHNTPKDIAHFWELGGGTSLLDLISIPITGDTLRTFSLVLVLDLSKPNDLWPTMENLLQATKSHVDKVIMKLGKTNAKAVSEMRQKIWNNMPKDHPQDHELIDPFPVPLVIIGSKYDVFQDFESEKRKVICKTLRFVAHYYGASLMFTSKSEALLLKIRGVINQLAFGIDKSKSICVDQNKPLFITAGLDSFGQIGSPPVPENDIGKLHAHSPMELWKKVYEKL
EGFP-DYNC2LI1(1–317) (Q8TCX1-2, form named): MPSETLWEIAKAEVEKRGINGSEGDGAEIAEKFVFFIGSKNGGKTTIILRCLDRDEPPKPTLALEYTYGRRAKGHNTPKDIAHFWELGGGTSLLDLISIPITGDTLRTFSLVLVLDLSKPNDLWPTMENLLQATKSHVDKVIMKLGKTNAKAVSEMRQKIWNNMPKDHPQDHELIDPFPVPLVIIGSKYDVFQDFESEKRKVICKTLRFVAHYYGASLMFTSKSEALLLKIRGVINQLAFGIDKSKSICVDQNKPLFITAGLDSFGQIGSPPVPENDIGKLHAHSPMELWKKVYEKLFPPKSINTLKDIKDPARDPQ
EGFP-DYNC2LI1(Δ302–332) (Q8TCX1-2, form named): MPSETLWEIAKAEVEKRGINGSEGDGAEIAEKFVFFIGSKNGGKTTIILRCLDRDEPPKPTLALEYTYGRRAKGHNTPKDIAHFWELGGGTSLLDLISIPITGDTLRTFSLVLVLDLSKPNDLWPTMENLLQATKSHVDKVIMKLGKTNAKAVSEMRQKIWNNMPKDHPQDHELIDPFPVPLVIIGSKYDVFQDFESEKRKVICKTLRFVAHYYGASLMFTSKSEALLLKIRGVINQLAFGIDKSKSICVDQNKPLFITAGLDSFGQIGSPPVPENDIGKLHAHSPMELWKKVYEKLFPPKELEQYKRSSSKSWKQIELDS
UniProt Q96EX3, residues 106-536: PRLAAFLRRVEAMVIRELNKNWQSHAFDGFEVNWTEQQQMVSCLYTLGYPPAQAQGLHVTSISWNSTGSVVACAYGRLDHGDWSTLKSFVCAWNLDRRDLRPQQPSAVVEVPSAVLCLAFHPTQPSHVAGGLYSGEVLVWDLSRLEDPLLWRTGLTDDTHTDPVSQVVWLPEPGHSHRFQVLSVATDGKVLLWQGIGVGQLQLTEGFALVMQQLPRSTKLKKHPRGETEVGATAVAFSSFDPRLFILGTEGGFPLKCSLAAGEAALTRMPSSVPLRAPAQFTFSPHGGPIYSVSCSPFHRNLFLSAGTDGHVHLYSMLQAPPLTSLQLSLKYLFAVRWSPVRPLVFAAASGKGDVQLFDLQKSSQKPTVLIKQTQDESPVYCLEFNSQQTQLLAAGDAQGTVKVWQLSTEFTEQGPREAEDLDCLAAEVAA
UniProt Q8WVS4, residues 627-1066: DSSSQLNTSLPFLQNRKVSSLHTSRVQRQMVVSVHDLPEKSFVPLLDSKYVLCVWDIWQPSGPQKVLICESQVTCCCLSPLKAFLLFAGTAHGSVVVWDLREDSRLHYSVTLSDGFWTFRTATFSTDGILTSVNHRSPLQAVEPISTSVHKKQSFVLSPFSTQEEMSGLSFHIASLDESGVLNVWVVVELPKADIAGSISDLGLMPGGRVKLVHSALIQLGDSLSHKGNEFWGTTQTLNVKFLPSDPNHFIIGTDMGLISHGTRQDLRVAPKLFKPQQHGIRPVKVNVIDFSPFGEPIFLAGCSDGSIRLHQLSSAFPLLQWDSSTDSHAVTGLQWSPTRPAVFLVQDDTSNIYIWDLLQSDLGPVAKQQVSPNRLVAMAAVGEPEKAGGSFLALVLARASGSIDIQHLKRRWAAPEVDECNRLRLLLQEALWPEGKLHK

Substance: EGFP-DYNC2LI1(241–352) (from UniProt Q8TCX1-2 241-352) (domain or fragment)
binding (DYNC2H1(N)-mCherry): no binding

Substance: EGFP-DYNC2LI1(L117V) (from UniProt Q8TCX1-2 1-352)
binding (DYNC2H1(N)-mCherry): binds

Substance: EGFP-DYNC2LI1(WT) (from UniProt Q8TCX1-2 1-352)
binding (DYNC2H1(N)-mCherry): binds

Substance: mChe-WDR34(106–536) (from UniProt Q96EX3 106-536) (domain or fragment)
binding (DYNC2H1(N)-EGFP): binds

More lines, now with the values ahead:

binding (DYNC2H1(N)-mCherry): binds
Substance: EGFP-DYNC2LI1(P120S) (from UniProt Q8TCX1-2 1-352)

binding (DYNC2H1(N)-mCherry): binds
Substance: EGFP-DYNC2LI1(T221I) (from UniProt Q8TCX1-2 1-352)

binding [1]: no binding
binding [2]: no binding
binding [3]: no binding
binding [4]: no binding
binding [5]: no binding
binding [6]: no binding
binding [7]: no binding
binding [8]: binds
binding [9]: binds
binding [10]: no binding
Substance: mChe-WDR60(627–1066) (from UniProt Q8WVS4 627-1066) (domain or fragment)

From article PMC8742128
